Test results published in the supplement of paper PMC4967469.

Compound: CC[C@H](Nc1ncnc2[nH]cnc12)c1nc2cccc(F)c2c(=O)n1-c1ccccc1 [CAL-101]
Assay: Viability of human cancer cell lines after 72 h of drug (GDSC screen)
Procedure: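 Human cancer cell lines in 384-well plates, medium with 10% serum, drug for 72 h over a 256-fold dose range (nine 2-fold or five 4-fold steps up to the top dose). Adherent lines were fixed and stained with the nucleic acid dye Syto60, suspension lines read with resazurin; signal relative to control wells, capped at 0 and 100%. One two-parameter sigmoid per drug and line, fitted in a mixed model over all curves with the slope shared within a line.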

| Cell Line | AUC | IC50 [µM] |
| --- | --- | --- |
| NCI-H2009 (lung adenocarcinoma, adherent, top dose 20 µM) | 0.986 | > 20 |
| NCI-H2023 (lung adenocarcinoma, adherent, top dose 20 µM) | 0.973 | > 20 |
| NCI-H2029 (small cell lung carcinoma, adherent, top dose 20 µM) | 0.989 | > 20 |
| NCI-H2030 (lung adenocarcinoma, adherent, top dose 20 µM) | 0.919 | > 20 |
| NCI-H2052 (mesothelioma, adherent, top dose 20 µM) | 0.978 | > 20 |
| NCI-H2081 (small cell lung carcinoma, suspension, top dose 20 µM) | 0.947 | > 20 |
| NCI-H2085 (lung adenocarcinoma, adherent, top dose 20 µM) | 0.793 | 10 |
| NCI-H2087 (lung adenocarcinoma, semi-adherent, top dose 20 µM) | 0.639 | 3.13 |
| NCI-H2110 (non-small cell lung carcinoma, adherent, top dose 20 µM) | 0.985 | > 20 |
| NCI-H2122 (lung adenocarcinoma, adherent, top dose 20 µM) | 0.987 | > 20 |
| NCI-H2135 (non-small cell lung carcinoma, adherent, top dose 20 µM) | 0.953 | > 20 |
| NCI-H2141 (small cell lung carcinoma, suspension, top dose 20 µM) | 0.93 | > 20 |
| NCI-H2170 (lung squamous cell carcinoma, adherent, top dose 20 µM) | 0.984 | > 20 |
| NCI-H2171 (small cell lung carcinoma, suspension, top dose 20 µM) | 0.977 | > 20 |
| NCI-H2172 (non-small cell lung carcinoma, adherent, top dose 20 µM) | 0.981 | > 20 |
| NCI-H2196 (small cell lung carcinoma, adherent, top dose 20 µM) | 0.974 | > 20 |
| NCI-H2227 (small cell lung carcinoma, semi-adherent, top dose 20 µM) | 0.911 | > 20 |
| NCI-H2228 (lung adenocarcinoma, adherent, top dose 20 µM) | 0.928 | > 20 |
| NCI-H2291 (lung adenocarcinoma, adherent, top dose 20 µM) | 0.984 | > 20 |
| NCI-H2342 (lung adenocarcinoma, adherent, top dose 20 µM) | 0.967 | > 20 |
| NCI-H2347 (lung adenocarcinoma, adherent, top dose 20 µM) | 0.924 | > 20 |
| NCI-H2405 (lung adenocarcinoma, adherent, top dose 20 µM) | 0.986 | > 20 |
| NCI-H2444 (non-small cell lung carcinoma, adherent, top dose 20 µM) | 0.983 | > 20 |
| NCI-H2452 (mesothelioma, adherent, top dose 20 µM) | 0.984 | > 20 |
| NCI-H3122 (lung adenocarcinoma, adherent, top dose 20 µM) | 0.941 | > 20 |
| NCI-SNU-1 (stomach, suspension, top dose 20 µM) | 0.951 | > 20 |
| NCI-SNU-5 (stomach, suspension, top dose 20 µM) | 0.989 | > 20 |

| Cell Line | AUC | IC50 [µM] |
| --- | --- | --- |
| NCI-SNU-16 (stomach, suspension, top dose 20 µM) | 0.991 | > 20 |
| NEC8 (testis, adherent, top dose 20 µM) | 0.991 | > 20 |
| NH-12 (neuroblastoma, adherent, top dose 20 µM) | 0.941 | > 20 |
| NKM-1 (acute myeloid leukaemia, suspension, top dose 20 µM) | 0.599 | 2.35 |
| NMC-G1 (glioma, adherent, top dose 20 µM) | 0.901 | > 20 |
| NOMO-1 (acute myeloid leukaemia, suspension, top dose 20 µM) | 0.805 | 11.8 |
| NOS-1 (osteosarcoma, adherent, top dose 20 µM) | 0.772 | 9.58 |
| NTERA-2 cl.D1 (testis, adherent, top dose 20 µM) | 0.946 | > 20 |
| NU-DUL-1 (B-cell lymphoma, suspension, top dose 20 µM) | 0.091 | 0.0854 |
| NUGC-3 (stomach, adherent, top dose 20 µM) | 0.97 | > 20 |
| NUGC-4 (stomach, adherent, top dose 20 µM) | 0.988 | > 20 |
| NY (osteosarcoma, adherent, top dose 20 µM) | 0.987 | > 20 |
| OACM5-1 (oesophagus, semi-adherent, top dose 20 µM) | 0.875 | > 20 |
| OACp4C (oesophagus, adherent, top dose 20 µM) | 0.883 | > 20 |
| OAW-28 (ovary, adherent, top dose 20 µM) | 0.876 | > 20 |
| OAW-42 (ovary, adherent, top dose 20 µM) | 0.92 | > 20 |
| OC-314 (ovary, adherent, top dose 20 µM) | 0.959 | > 20 |
| OCI-AML2 (acute myeloid leukaemia, suspension, top dose 20 µM) | 0.982 | > 20 |
| OCI-AML3 (acute myeloid leukaemia, suspension, top dose 20 µM) | 0.782 | 7.12 |
| OCI-AML5 (acute myeloid leukaemia, suspension, top dose 20 µM) | 0.81 | 9.4 |
| OCI-LY-19 (B-cell lymphoma, suspension, top dose 20 µM) | 0.817 | 10.1 |
| OCI-M1 (acute myeloid leukaemia, suspension, top dose 20 µM) | 0.839 | 9.23 |
| OCUB-M (breast, adherent, top dose 20 µM) | 0.954 | > 20 |
| OCUM-1 (stomach, adherent, top dose 20 µM) | 0.987 | > 20 |
| OE19 (oesophagus, adherent, top dose 20 µM) | 0.986 | > 20 |
| OE21 (oesophagus, adherent, top dose 20 µM) | 0.978 | > 20 |
| OE33 (oesophagus, adherent, top dose 20 µM) | 0.947 | > 20 |

| Cell Line | AUC | IC50 [µM] |
| --- | --- | --- |
| OMC-1 (cervix, adherent, top dose 20 µM) | 0.977 | > 20 |
| ONS-76 (medulloblastoma, adherent, top dose 20 µM) | 0.96 | > 20 |
| OPM-2 (myeloma, suspension, top dose 20 µM) | 0.962 | > 20 |
| OS-RC-2 (kidney, adherent, top dose 20 µM) | 0.808 | 16.7 |
| OSC-19 (head and neck, adherent, top dose 20 µM) | 0.936 | > 20 |
| OSC-20 (head and neck, adherent, top dose 20 µM) | 0.953 | > 20 |
| OV-7 (ovary, adherent, top dose 20 µM) | 0.869 | > 20 |
| OV-17R (ovary, adherent, top dose 20 µM) | 0.844 | > 20 |
| OV-56 (ovary, adherent, top dose 20 µM) | 0.976 | > 20 |
| OV-90 (ovary, adherent, top dose 20 µM) | 0.981 | > 20 |
| OVCA420 (ovary, adherent, top dose 20 µM) | 0.972 | > 20 |
| OVCA433 (ovary, adherent, top dose 20 µM) | 0.967 | > 20 |
| OVCAR-3 (ovary, adherent, top dose 20 µM) | 0.979 | > 20 |
| OVCAR-4 (ovary, adherent, top dose 20 µM) | 0.947 | > 20 |
| OVCAR-5 (ovary, adherent, top dose 20 µM) | 0.95 | > 20 |
| OVCAR-8 (ovary, adherent, top dose 20 µM) | 0.955 | > 20 |
| OVISE (ovary, adherent, top dose 20 µM) | 0.912 | > 20 |
| OVK-18 (ovary, adherent, top dose 20 µM) | 0.986 | > 20 |
| OVKATE (ovary, adherent, top dose 20 µM) | 0.925 | > 20 |
| OVMIU (ovary, adherent, top dose 20 µM) | 0.874 | > 20 |
| OVTOKO (ovary, adherent, top dose 20 µM) | 0.889 | > 20 |
| P12-ICHIKAWA (T-cell lymphoblastic leukaemia, suspension, top dose 20 µM) | 0.771 | 6.03 |
| P30-OHK (lymphoblastic leukaemia, suspension, top dose 20 µM) | 0.595 | 2.17 |
| P31-FUJ (acute myeloid leukaemia, suspension, top dose 20 µM) | 0.995 | > 20 |
| P32-ISH (Burkitt lymphoma, suspension, top dose 20 µM) | 0.931 | 19.1 |

IC50 is the fitted dose that halves viability relative to control wells, and lower means more sensitive; fits outside the tested doses are given as limits. For AUC the same curve is integrated over the 256-fold range of doses and scaled to a fraction: 1 means no effect, lower means more sensitive.
